#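 Protocol summary: plate cells (96-well), add compound at 5 concentrations, incubate 48 h, interpolate endpoints linearly. Abbreviation: GI50, concentration required for 50% inhibition of growth.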 Active and inactive are the calls of the source. Rule as the data show it: active = GI50 up to about 1.1 µM and inactive = higher.
# System: NCI-H322M
# Experiment: NCI tumour cell line growth inhibition, 48 h
row,SMILES,GI50
1,CN[C@@H]1C[C@H]2O[C@@](C)([C@@H]1OC)n1c3ccccc3c3c4c(c5c6ccccc6n2c5c31)C(=O)N[C@@H]4O,active: 0.0845 µM
2,COc1cc2nc(-c3ccccc3)cc(O)c2cc1OC,inactive: 38.7 µM
3,O=C1NC(=S)NC(=O)C1=C(O)Nc1ccccc1,inactive: 41 µM
4,OCCCN=C1CCCCC1,inactive: > 100 µM
5,NCCN1C(=O)c2ccccc2C1(O)c1ccc(Cl)cc1 (configuration not stated),inactive: 22.9 µM
6,COc1cc(-c2c(C(C)=O)c(-c3ccccc3)n(C3OC(COC(C)=O)C(OC(C)=O)C(OC(C)=O)C3OC(C)=O)c(=S)c2C#N)ccc1O (configuration not stated),inactive: > 100 µM
7,CN1C(=O)N/C(=C\c2ccc(S(=O)(=O)N/N=C\C(O)C(O)C(O)CO)cc2)C1=O (configuration not stated),inactive: > 100 µM
8,CC(=O)OC[C@]12CCC3[C@@]4(C)CCCC(C)(C)C4CC[C@@]3(C)C1CC(C1=CC(=O)OC1O)O2 (some centres not stated),inactive: 2.23 µM
9,CC1(C)O[C@@H](CCl)C[C@H](C#N)O1,inactive: > 100 µM
10,CC12OC(=O)C(C#N)C1(C)C1C(=O)CCCC12 (configuration not stated),inactive: > 100 µM
11,COc1ccc(OC)c(/C=C2\CCc3ccccc3C2=O)c1,inactive: 4.83 µM
12,CCCCn1c(C)c2c(c1C)C(=O)N(CCN1CCN(c3ccccc3Cl)CC1)C2=O,inactive: 41.5 µM
13,CCOc1ccc(NCC2CC/C(=C\C=C\c3ccccc3)C2=O)cc1 (configuration not stated),inactive: 57.1 µM
14,CCOC(=O)C(C)(C)/C=C\C(Cl)=C(Cl)Cl,inactive: > 100 µM
15,CC(C)(C)OC(=O)NCC(c1c[nH]c2ccccc12)c1c[nH]c2ccccc12,inactive: 16.5 µM
16,O=c1[nH]c(-n2[nH]c3c(c2=O)CCCC3)nc(O)c1-c1ccccc1,inactive: > 100 µM
17,CCOC(=O)C1CCC(=O)N1C(=O)c1ccc(Cl)cc1 (configuration not stated),inactive: > 100 µM
18,COC(=O)[C@]12CC[C@H]3CN(S(=O)(=O)c4ccc(C)cc4)[C@H]([C@H]31)[C@H](c1ccco1)N2S(=O)(=O)c1ccc(C)cc1,inactive: > 100 µM
19,CC(C)Nc1n[nH]c(=O)n1C(C)C,inactive: > 100 µM
20,CC(C)=CCC[C@@H](C)C1=C(O)C(=O)C(C)=C(Nc2ccccc2I)C1=O,inactive: 17.7 µM
21,CCN(CC)CC1CCCCCCCCCCC1=O (configuration not stated),inactive: > 100 µM
22,CC(C)OP(=O)(OC(C)C)/C(C#N)=C/c1c[nH]c2ccccc12,inactive: > 100 µM
23,C[C@@H](c1ccccc1)C(CC#N)[C@H]1CCC[C@]1(O)C#Cc1ccc2c(c1)OCO2 (some centres not stated),inactive: 17.4 µM

row,SMILES,GI50
1,COc1ccccc1C[C@@H]1OC2(C=CC(=O)CC2SC(=O)c2ccccc2)O[C@H]1Cc1ccccc1OC (some centres not stated),inactive: 4.67 µM
2,CC1OC(NCCNCCNC2OC(C)C(O)C(O)C2O)C(O)C(O)C1O (configuration not stated),inactive: > 100 µM
3,Cc1sc(N/N=C2\C(=O)Nc3ccccc32)nc1-c1ccccc1,inactive: 16 µM
4,CC(C(=O)N1c2ccccc2Sc2ccccc21)N1c2ccccc2Sc2ccccc21 (configuration not stated),inactive: > 100 µM
5,CC(N)Cc1ccc(F)cc1 (configuration not stated),inactive: > 100 µM
6,CCCCn1c2c(n(CCCC)c1=S)-c1c(n(CCCC)c(=S)n1CCCC)SSc1c(n(CCCC)c(=S)n1CCCC)-c1c(n(CCCC)c(=S)n1CCCC)SSc1c(n(CCCC)c(=S)n1CCCC)-c1c(n(CCCC)c(=S)n1CCCC)SS2,inactive: > 46.6 µM
7,C=C=CC(NC(=O)c1ccccc1)(C(=O)O)C(F)(F)F (configuration not stated),inactive: > 100 µM
8,COc1cc(S(=O)(=O)N/N=C/C=C/c2ccccc2)c(OC)cc1NC(C)=O,inactive: > 100 µM
9,O=C(/C=C1/Nc2ccc([N+](=O)[O-])cc2N/C1=C/C(=O)c1ccccc1)c1ccccc1,inactive: 53.7 µM
10,NC(=O)c1nc[nH]c1/N=N/SCC(N)C(=O)O (configuration not stated),inactive: > 56.6 µM
11,CC(=O)Nc1ccc2c(C)c3c(nc2n1)[nH]c1ccccc13,inactive: 30.5 µM
12,Cc1ccc2sc3cc(=O)cc(C)c-3nc2c1,inactive: 97.3 µM
13,COc1cc2c(c(OC)c1OC)-c1cccc(=O)cc1C(NC(C)=O)CC2 (configuration not stated),active: 0.207 µM
14,O=C(NCCNCCO)N/N=C/c1cccc([N+](=O)[O-])c1,inactive: > 100 µM
15,COC(=O)CCSC(=O)Nc1ccc(/N=N/c2ccccc2)cc1,inactive: > 100 µM
16,COc1cccc(/C(CC(O)(C(F)(F)F)C(F)(F)F)=N\N(C)C)c1,inactive: > 100 µM
17,Clc1cccc(-c2sc(-c3cccs3)cc2Cc2cccs2)c1,inactive: > 10 µM
18,C=C[C@@]1(C)CC[C@@H]2[C@@]3(C1)O[C@H]3CC1[C@](C)(C(=O)OC)CCC[C@@]12C (some centres not stated),inactive: 10.5 µM
19,CS(=O)(=O)OCCn1cnc2nc(NC(=O)c3ccccc3)[nH]c(=O)c21,inactive: 4.72 µM
20,O=P(NC12CC3CC(CC(C3)C1)C2)(N1CC1)N1CC1,inactive: > 100 µM
21,O=C(N/C(=C\c1cccc([N+](=O)[O-])c1)c1nc2c3c(ccc2[nH]1)C(=O)c1ccccc1C3=O)c1ccccc1,inactive: 19.8 µM
22,O=c1cc(/N=N\c2ccc(Cl)cc2)[nH]c(=O)[nH]1,inactive: 12.6 µM
23,CC(C)(C)OC(=O)c1ccc(NCC2=C(Br)C(=O)C=CC2=O)cc1,inactive: > 100 µM

row,SMILES,GI50
1,Cc1ccc(OCC2OC(C#N)C(Oc3ccc(C)cc3)C2Oc2ccc(C)cc2)cc1 (configuration not stated),inactive: > 100 µM
2,Cc1cc(O)nc(NNC(C#N)c2cccc(O)c2)n1 (configuration not stated),inactive: > 100 µM
3,O=C(CC/C(C/C(=N/O)c1ccc(F)cc1)=N/O)N(Cc1ccccc1)Cc1ccccc1,inactive: > 100 µM
4,N/C(=N\c1ccc(Cl)cc1)c1ccccc1N,inactive: > 100 µM
5,COc1cccc(/C=C2\N=C(c3ccccc3)OC2=O)c1,inactive: > 100 µM
6,C[C@]12CC[C@H](OC3CCCCO3)CC1=CC[C@@H]1C2CC[C@]2(C)/C(=N/O)CCC12 (some centres not stated),inactive: 27.6 µM
7,CC(C)NC(=O)OCc1nnn2c1CCC2,inactive: > 100 µM
8,COC(=O)[C@@H]1CN(C(=O)CCc2ccccc2)C(=O)N1C(=O)OCc1ccccc1,inactive: > 100 µM
9,CN(C)/N=N/c1ccc2[nH]c(=O)[nH]c2c1,inactive: > 100 µM
10,O=C(c1cccs1)N(C(=O)N1CCCCC1)c1ccccc1,inactive: > 100 µM
11,CC1=NN=C(N)NC1=CC(Sc1ccc(Cl)cc1)c1c(O)ccc2ccccc12 (configuration not stated),inactive: 20.3 µM
12,NC(=O)NC(=O)c1cccc(C(=O)NC(N)=O)n1,inactive: > 100 µM
13,O=C1C(c2ccc([N+](=O)[O-])cc2)=C(Cl)C(=O)c2c(O)cccc21,inactive: 30.3 µM
14,O=C1C2Cc3ccccc3CN2C(=O)N1CCN1CCOCC1 (configuration not stated),inactive: > 100 µM
15,Brc1ccc2ns[s+]c2c1,inactive: > 24.5 µM
16,O=P(O)(O)OP(=O)(O)O,inactive: > 100 µM
17,COC1CCC2C(NS(=O)(=O)c3ccc(C)cc3)CCCC2O1.Cc1ccc(S(=O)(=O)NC(C)(C)C=O)cc1 (configuration not stated),inactive: 16.4 µM
18,O=C(Cc1ccccc1F)NC1=C(Cl)C(=O)c2ccccc2C1=O,inactive: 5.25 µM
19,OCCCCCNc1nc(O)c2[nH]cnc2n1,inactive: > 100 µM
20,C=C(C)C(O)CCC1(C)C=Cc2c(c(C)cc3c2[nH]c2ccccc23)O1 (configuration not stated),inactive: 18.8 µM
21,Cc1ccc(/C=C/C(=O)c2cc(CN(C)C)c(O)c(CN(C)C)c2)cc1,inactive: 15.4 µM

# — ChEMBL document CHEMBL1201862, “PubChem BioAssay data set” (2004)
